# In article PMC4336329 (PLoS ONE, 2015):
# The whole screen tested about 310,000 compounds, of which about 2,200 (0.71%) showed an effect of 50% or more. The effect is printed as a negative number. The list shows a part of the results.
# Molecular target: human ether-à-go-go-related gene (hERG) potassium channel (human, UniProt Q12809)
# Assay: primary screen, population patch clamp on CHO cells stably expressing hERG
# human ether-à-go-go-related gene (hERG) potassium channel, sequence (Q12809 whole entry, looked up): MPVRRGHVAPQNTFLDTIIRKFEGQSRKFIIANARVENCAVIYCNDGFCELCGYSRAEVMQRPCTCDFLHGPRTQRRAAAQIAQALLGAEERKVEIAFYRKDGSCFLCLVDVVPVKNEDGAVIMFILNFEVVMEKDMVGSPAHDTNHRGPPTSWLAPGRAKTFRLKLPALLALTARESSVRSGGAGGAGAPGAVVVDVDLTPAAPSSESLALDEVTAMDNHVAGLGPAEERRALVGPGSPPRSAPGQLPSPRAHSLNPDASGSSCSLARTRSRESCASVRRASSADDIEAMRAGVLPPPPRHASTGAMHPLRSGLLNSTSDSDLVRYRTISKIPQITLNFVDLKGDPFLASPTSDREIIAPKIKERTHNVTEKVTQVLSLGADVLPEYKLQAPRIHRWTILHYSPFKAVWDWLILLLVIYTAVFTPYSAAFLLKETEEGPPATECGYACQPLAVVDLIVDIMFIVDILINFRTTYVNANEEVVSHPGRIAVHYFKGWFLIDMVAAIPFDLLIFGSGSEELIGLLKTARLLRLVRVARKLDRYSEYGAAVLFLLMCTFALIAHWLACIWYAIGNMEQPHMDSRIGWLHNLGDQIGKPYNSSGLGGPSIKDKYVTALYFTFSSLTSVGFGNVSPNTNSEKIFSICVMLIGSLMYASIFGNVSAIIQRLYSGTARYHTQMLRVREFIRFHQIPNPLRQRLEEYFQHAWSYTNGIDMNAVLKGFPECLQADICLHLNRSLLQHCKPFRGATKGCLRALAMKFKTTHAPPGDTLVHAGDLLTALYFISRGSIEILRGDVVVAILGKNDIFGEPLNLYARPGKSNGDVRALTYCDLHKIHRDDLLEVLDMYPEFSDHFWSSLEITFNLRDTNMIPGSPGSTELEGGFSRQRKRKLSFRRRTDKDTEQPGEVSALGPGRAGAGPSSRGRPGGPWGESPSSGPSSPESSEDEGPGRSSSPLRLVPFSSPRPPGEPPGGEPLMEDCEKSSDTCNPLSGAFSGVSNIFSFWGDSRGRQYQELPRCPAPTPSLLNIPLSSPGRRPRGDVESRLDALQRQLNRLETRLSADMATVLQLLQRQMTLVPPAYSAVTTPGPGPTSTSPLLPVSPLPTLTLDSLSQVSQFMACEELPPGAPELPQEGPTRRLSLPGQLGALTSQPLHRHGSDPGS
row,SMILES,"hERG current change (%, negative = inhibition) at 1uM [%]"
1,CCOP(=O)(OCC)C(O)c1cc(OC)c(OC)c(OC)c1 (stereo not shown),7.67
2,Cn1c(N)c(C(=O)COC(=O)CCCOc2ccc(Cl)cc2Cl)c(=O)n(C)c1=O,16
3,COc1ccccc1NC(=S)N(Cc1ccccc1)Cc1cccs1,6.04
4,Cc1cc(C)c(S(=O)(=O)N2CCN(C(=O)N(C)C)CC2)c(C)c1,12.9
5,CCOc1cc2[nH]c(=S)n(CCCN(CC)CC)c(=O)c2cc1OCC,-10.4
6,COCCNc1nc(-c2cc(-c3ccc(Cl)cc3)on2)cc(C(C)C)n1,19.1
7,O=C(O)C1CCCCC1C(=O)NC1C2CC3CC(C2)CC1C3 (stereo not shown),16.4
8,O=C(CSc1nc(-c2ccccc2)c(-c2ccccc2)[nH]1)NCCN1C(=O)CSC1=O,8.01
9,Cc1ccc(F)cc1NC(=O)C1CC(=O)N(CCc2ccccc2)C1 (stereo not shown),2.97
10,O=C(Cn1ccc(C(F)(F)F)n1)N=Nc1c(O)[nH]c2ccccc12,6.83
11,CN(C)S(=O)(=O)c1ccc(N2CCCC2)c(C(=O)Nc2ccc(C(N)=O)cc2)c1,0.977
12,Nn1c(SCC(=O)Nc2ccccc2)nnc1-c1cccnc1,-2.5
13,CCOC(=O)c1sc2nc(CSc3ccccc3)nc(N3CCCN(C)CC3)c2c1C.O=C(O)C(=O)O,-8.48
14,COc1ccc(-c2coc3cc4oc(=O)cc(C)c4cc23)cc1F,3.54
15,CSCCC(NC(=O)c1ccccc1Cl)C(=O)N(C)CC(=O)Nc1ccc(N2CCOCC2)cc1 (stereo not shown),9.96
16,CCn1c2ccccc2c2cc(NC(=O)C(C)Oc3ccc(OC)cc3)ccc21 (stereo not shown),19.4
17,Cc1c(CCC(=O)N2CCC[C@H]2C(=O)O)c(=O)oc2c(C)c3oc4c(c3cc12)CCCC4,21.1
18,CCN(CC)C(=O)CCSc1nnc(-c2ccncc2)o1,4.3
19,C=CCO/N=C(/C)c1c(O)c(CC)c(-c2ccccc2)n(-c2ccccc2)c1=O,12
20,Cc1ccc(CNC(=O)C2CCN(C(=O)Nc3ccccc3)CC2)cc1,3.04
21,c1ccc(C(c2ccccc2)c2noc(CN3CCC(c4ccncc4)CC3)n2)cc1,4.77
22,CC(=O)C1=C(O)C(=O)N(c2ccc(S(N)(=O)=O)cc2)C1c1ccc([N+](=O)[O-])cc1 (stereo not shown),9.54
23,CCOc1ccccc1NC(=O)CN(C)S(=O)(=O)c1ccc2[nH]c(=O)oc2c1,8.9
24,CC(=O)c1cccc(NC(=O)c2cc3ccccn3n2)c1,1.31
25,O=C(CN1CCCCC1)Nc1ccccc1-c1ccccc1,14.4
26,O=C(Nc1ccnn1C1CCN(Cc2ccc(CO)o2)CC1)c1ccc2c(c1)OCO2,11
27,O=C(CSCc1ccccc1Br)N/N=C/c1ccc(OCC(=O)N2CCCCC2)cc1,12.4
28,Cc1nn(CC(=O)NC2(C#N)CCCCC2)c(C)c1[N+](=O)[O-],3.12

row,SMILES,"hERG current change (%, negative = inhibition) at 1uM [%]"
1,CCC(=O)Nc1ccc2c(c1)ncn2-c1ccccc1,12.3
2,COCCNc1ccnc2c(Cl)cccc12,-40
3,COCCNC(=S)NC(=O)CC12CC3CC(CC(C3)C1)C2,4.32
4,Cc1cc2occ(CC(=O)N(C)CC(=O)Nc3ccccc3Br)c2cc1C,11.9
5,CC(=O)c1ccc(S(=O)(=O)N(Cc2cc3cc4c(cc3[nH]c2=O)OCCO4)CC2CCCO2)cc1 (stereo not shown),7.51
6,Cc1cc(C)c2[nH]c(=O)c(CN(Cc3ccc4c(c3)OCO4)Cc3nnnn3C3CCCC3)cc2c1,9.27
7,CN(C)S(=O)(=O)c1ccc(N2C(=O)CC2(/C=C/c2ccccc2)C(=O)NC2CCCC2)cc1 (stereo not shown),33.5
8,OC1CCCN(c2ncnc3c2nnn3Cc2c(F)cccc2Cl)C1 (stereo not shown),7.5
9,Cn1c(C(=O)N2CCN(c3ccccc3)CC2)cc2cc(Cl)ccc21,14.3
10,Cc1ccc(S(=O)(=O)N(C)C)cc1NC(=O)CN1CCN(Cc2ccccc2)CC1.Cl,3.57
11,Nc1nc(SCC(=O)Nc2cccc(S(=O)(=O)N3CCCCCC3)c2)n[nH]1,6.11
12,CCN(C(=O)CSc1ncn[nH]1)c1c(N)n(Cc2ccccc2)c(=O)[nH]c1=O,16.2
13,O=C(NCc1ccc2c(c1)OCO2)c1ccc(Cl)c(S(=O)(=O)N2CCOCC2)c1,-8.32
14,Nc1cc(-c2ccccc2)nn1Cc1ccc(Cl)cc1,-2.88
15,COc1ccc(C(=O)NNS(=O)(=O)c2ccc(OC)cc2)cc1,7.96
16,O=c1cnc2ccccc2n1CC1CCCCC1,15.5
17,COc1cc(/C=C/C(=O)O)cc(S(=O)(=O)NCCCO)c1OC,9.06
18,COC(=O)c1cn(Nc2ncc(C(F)(F)F)cc2Cl)c(=O)c2ccccc12,10.2
19,CNC(=O)/C(C#N)=C1/SC(Cc2ccc(F)cc2)C(=O)N1c1ccccc1 (stereo not shown),10.6
20,COc1ccc(NC(=O)N2CCN(c3nc(-c4cccc(OC)c4)cs3)CC2)cc1,9.83
21,COc1ccc2[nH]c3c(=O)n4c(nc3c2c1)SCC4,9.77
22,Cc1ccc(C(=O)NNC(=O)Cn2nnc3ccccc32)cc1,13.6
23,COc1ccc(/C=C/C(=O)c2cccc(-n3cnnn3)c2)cc1O,12.5
24,COC(=O)C1=CN(C(C)C)C=C(C(=O)OC)C1c1cc(Br)c(OC)c(OC)c1,5.14
25,Clc1cc(Cl)c2nc(N3CCCCC3)sc2c1,7.59
26,CCn1c(SCC(=O)c2ccc(F)cc2)nnc1-c1ccoc1C,8.06
27,Clc1ccccc1Cn1nnc(-c2cccs2)n1,11.8
